How the values were obtained:
Assay in all cases: optical tweezers with confocal fluorescence microscopy; λ DNA held at 10 pN, incubated ≈30 s in 100 nM of one core histone, then brought into 5 nM fluorescently labelled chaperone and imaged for 5 min; 25 mM HEPES, 50 mM KCl, 0.1 mM EDTA, pH 7.5; controls without histones showed no chaperone binding
Details in all cases: both partners purified
[1] = biological target: core histone H2A from Xenopus laevis (Xenopus laevis, UniProt P06897)
[2] = biological target: core histone H2B from Xenopus laevis (Xenopus laevis, UniProt P02281)
[3] = biological target: T1, core histone H4 from Xenopus laevis (Xenopus laevis, UniProt P62799)
T1 construct: Histone H4, Xenopus laevis, pET3a plasmid from Dr. Tim Richmond

Measured: binding result

B1: SET/template‐activating factor‐Iβ Q69C, labelled with Alexa Fluor 532 (natural protein)
chain: not shown
modifications: Alexa Fluor 532 C5 maleimide on the introduced cysteine (Q69C); labelling efficiency ≈95%
notes: SET/TAF-Iβ, human, full-length construct with the point mutation Q69C; The N-terminal 6xHis tag is told for the wild type construct in pET28a(+); also called SET/TAF‐Iβ; SET/TAF‐Iβ‐Q69C; source: E. coli BL21(DE3); after labelling passed over Superdex 200 size exclusion column
binds: all assays above

Reference: paper PMC10582448, “The Histone Chaperones SET/TAF‐1β and NPM1 Exhibit Conserved Functionality in Nucleosome Remodeling and Histone Eviction in a Cytochrome c‐Dependent Manner” (Advanced Science, 2023)
